# Experimental data reported in PubChem BioAssay (NCATS).
# “And” between values parts separate entries of the source, which are not always exact repeats. Equal entries are not always repeated. The shares of active, inactive and inconclusive entries below differ from those in the screen. For some of these results: Where the call is inconclusive, the potency comes from a doubtful curve fit. Some structures have more than one record in an assay (separate samples or runs), and their calls can disagree. The source made the active and inactive calls. Unless noted, the call rests on the fitted dose curve; in most records, active means well fitted curve in the direction sought with a large enough effect; inconclusive means small, poorly fitted or top-dose-only effect, or another doubt; inactive means no such curve, though single readings can be large; an effect the other way counts as inactive or inconclusive.
# Legend:
# [1] = Primary qHTS for small molecule stabilizers of the endoplasmic reticulum resident proteome: Secreted ER Calcium Modulated Protein (SERCaMP) assay (AID 1508630); details: SH-SY5Y GLuc-SERCaMP (Gaussia luciferase released on ER calcium loss) secretion, thapsigargin, luminescence; series mostly up to 38.4 µM; further: potency means the concentration at half of the fitted maximal effect
# How it was run: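 The SH-SY5Y reporter protocol was run at 3 concentrations up to 38.3 uM (primary) or 11 concentrations (follow-up): 16 h compound, 100 nM thapsigargin for 4 h, then extracellular luciferase luminescence.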
# [2] = target: Cytochrome P450 3A4 (Homo sapiens) (UniProt P08684); assay: Cytochrome P450 family 3 subfamily A member 4 (CYP3A4) small molecule antagonists: luciferase qHTS assay (AID 1645841; active means well fitted curve in the direction sought with a large enough effect in the repeat runs; inconclusive means weak or mixed curves; inactive means no such curve, though single readings can be large; an effect the other way counts as inactive or inconclusive; further: nearly all actives have a fitted effect of over 45% in size); details: P450-Glo CYP3A4 enzyme assay, luciferin luminescence; series mostly up to 57.4 µM
# How it was run: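 Luminescent CYP3A4 activity readout: compounds plus enzyme-substrate mix 10 min at room temperature, reaction started with NADPH regenerating system for 1 h, stopped with detection reagent, read after 20 min. Ketoconazole served as control.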
# [3] = target: Cytochrome P450 2C9 (Homo sapiens) (UniProt P11712); assay: Cytochrome P450 family 2 subfamily C member 9 (CYP2C9) small molecule antagonists: luciferase biochemical (cell-free) qHTS assay (AID 1645842; active means well fitted curve in the direction sought with a large enough effect in the repeat runs; inconclusive means weak or mixed curves; inactive means no such curve, though single readings can be large; an effect the other way counts as inactive or inconclusive; further: potency means the concentration at half of the fitted maximal effect; nearly all actives have a fitted effect of over 55% in size); details: P450-Glo CYP2C9 enzyme assay, luciferin luminescence; series mostly up to 57.4 µM
# How it was run: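 P450-Glo CYP2C9 system: proluciferin substrate with enzyme in mix containing 0.4% BSA, 10 min at room temperature, then NADPH regeneration solution added and incubated 1 h at 37C. Detection reagent stopped reaction; luminescence read after 20 min as RLU.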
# [4] = Primary qHTS for inhibitors of nuclear receptor binding SET domain protein 2 (NSD2) in an isogenic RCH-ACV NSD2 p.E1099K mutant (9B) (AID 1645876); details: RCH-ACV NSD2 E1099K (9B) viability, CellTiter-Glo, 72 h; series mostly up to 44.9 µM; further: nearly all actives have a fitted effect of over 70% in size; further: potency means the concentration at half of the fitted maximal effect
# [5] = Primary qHTS for inhibitors of nuclear receptor binding SET domain protein 2 (NSD2) in an RCH-ACV wild type WT cells (2C) (AID 1645877); details: RCH-ACV (leukaemia line) NSD2 WT (2C) viability, CellTiter-Glo, 72 h; series mostly up to 44.9 µM; further: potency means the concentration at half of the fitted maximal effect; nearly all actives have a fitted effect of over 70% in size
# [6] = target: Papain (Carica papaya) (UniProt P00784); assay: Primary qHTS assay for inhibitors of the protease papain (AID 1645873); details: papain Z-FR-AMC cleavage, AMC fluorescence; series mostly up to 49.8 µM;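 further: papain turnover of Z-FR-AMC read as the AMC fluorescence gain over 10 min; potency means the concentration at half of the fitted maximal effect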
# [7] = NCATS anti-infectives library activity on HEK293 viability as a counter-qHTS vs the C. elegans viability qHTS (AID 1745854); details: HEK293 viability counter-screen; series mostly up to 41.8 µM; further: potency means the concentration at half of the fitted maximal effect
# How it was run: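 Cytotoxicity counter-screen to a worm viability qHTS: CellTiter-Glo luminescence read 10 min after reagent addition. Compounds (final up to 41.7 uM, a 1:5 dilution series) incubated 24 hr at 37C with 1,500 HEK293 cells per well; digitonin control.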
# [8] = target: Rap guanine nucleotide exchange factor 3 (Homo sapiens) (UniProt O95398); assay: Confirmatory qHTS for antagonist of cAMP-regulated guanine nucleotide exchange factor 3 (EPAC1) (AID 1645880); details: EPAC1 Rap1B-BODIPY-GDP exchange, fluorescence; further: potency means the concentration at half of the fitted maximal effect; nearly all actives have a fitted effect of over 55% in size
# How it was run: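 Released BODIPY-GDP fluoresces less than Rap1-bound BODIPY-GDP; the signal is followed at 480/540 nm at 5-min intervals over 30 min, after 5 min at room temperature. Reactions contain 100 nM EPAC1, 250 nM RAP1B-BODIPY-GDP and 50 uM GDP; results are normalized to ATA and DMSO.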
# [9] = target: Rap guanine nucleotide exchange factor 4 (Homo sapiens) (UniProt Q8WZA2); assay: Confirmatory qHTS for antagonist of cAMP-regulated guanine nucleotide exchange factor 4 (EPAC2) (AID 1645885); details: EPAC2 Rap1B-BODIPY-GDP exchange fluorescence, biochemical; series mostly up to 114 µM; further: potency means the concentration at half of the fitted maximal effect; nearly all actives have a fitted effect of over 25% in size
# [10] = target: Rap guanine nucleotide exchange factor 3 (Homo sapiens) (UniProt O95398); assay: Counterscreen qHTS for agonist of cAMP-regulated guanine nucleotide exchange factor 3 (EPAC1) (AID 1645889); details: EPAC1 Rap1B-BODIPY-GDP exchange, fluorescence; series mostly up to 30.8 µM; further: nearly all actives have a fitted effect of over 40% in size; further: potency means the concentration at half of the fitted maximal effect
# How it was run: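 Rap1B-BODIPY-GDP 250 nM + GDP 50 uM; cpds 7-pt, final 9.74 nM–152 uM (activator mode) or from 7.32 nM upwards (inhibitor mode); RT; FI 480/540 nm at 5 and 30 min, then ± cAMP, reread.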
# [11] = target: Rap guanine nucleotide exchange factor 4 (Homo sapiens) (UniProt Q8WZA2); assay: Confirmatory qHTS for agonist of cAMP-regulated guanine nucleotide exchange factor 4 (EPAC2) (AID 1645884); details: EPAC2 GEF activity, Rap1B-BODIPY-GDP fluorescence; series mostly up to 51.3 µM;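 further: nucleotide exchange releases bodipy-GDP from Rap1 and this lowers its fluorescence; potency means the concentration at half of the fitted maximal effect; nearly all actives have a fitted effect of over 65% in size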
# Tags describe the fitted curve by direction and shape.
# Chain of UniProt Q8WZA2 (Q8WZA2 whole entry, looked up): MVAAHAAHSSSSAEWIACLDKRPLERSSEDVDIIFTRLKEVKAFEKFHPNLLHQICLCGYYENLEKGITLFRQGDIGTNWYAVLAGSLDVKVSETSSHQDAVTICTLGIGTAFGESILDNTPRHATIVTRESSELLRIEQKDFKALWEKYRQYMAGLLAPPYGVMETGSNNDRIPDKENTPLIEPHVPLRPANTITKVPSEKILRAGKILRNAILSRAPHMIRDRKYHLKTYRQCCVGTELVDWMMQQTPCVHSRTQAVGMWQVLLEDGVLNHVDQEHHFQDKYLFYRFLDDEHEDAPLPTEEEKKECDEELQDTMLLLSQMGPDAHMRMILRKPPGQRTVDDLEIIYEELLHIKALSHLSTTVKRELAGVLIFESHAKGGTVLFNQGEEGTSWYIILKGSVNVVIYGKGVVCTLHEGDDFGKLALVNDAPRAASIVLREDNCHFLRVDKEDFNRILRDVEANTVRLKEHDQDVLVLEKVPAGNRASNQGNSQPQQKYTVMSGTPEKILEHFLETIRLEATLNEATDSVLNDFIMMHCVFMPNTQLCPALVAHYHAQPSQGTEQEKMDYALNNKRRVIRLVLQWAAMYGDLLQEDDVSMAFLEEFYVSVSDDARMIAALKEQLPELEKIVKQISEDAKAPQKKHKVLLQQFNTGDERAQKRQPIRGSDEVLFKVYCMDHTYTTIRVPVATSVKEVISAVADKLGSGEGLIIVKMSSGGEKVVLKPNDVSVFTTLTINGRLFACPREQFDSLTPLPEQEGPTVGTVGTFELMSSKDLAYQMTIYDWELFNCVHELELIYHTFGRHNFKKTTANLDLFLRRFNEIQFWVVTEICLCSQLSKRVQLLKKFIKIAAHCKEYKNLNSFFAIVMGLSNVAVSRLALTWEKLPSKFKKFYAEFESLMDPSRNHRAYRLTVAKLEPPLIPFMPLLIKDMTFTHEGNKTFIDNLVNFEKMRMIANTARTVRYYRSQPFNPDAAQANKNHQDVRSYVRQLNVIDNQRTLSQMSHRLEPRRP
# Chain of UniProt O95398 (O95398 whole entry, looked up): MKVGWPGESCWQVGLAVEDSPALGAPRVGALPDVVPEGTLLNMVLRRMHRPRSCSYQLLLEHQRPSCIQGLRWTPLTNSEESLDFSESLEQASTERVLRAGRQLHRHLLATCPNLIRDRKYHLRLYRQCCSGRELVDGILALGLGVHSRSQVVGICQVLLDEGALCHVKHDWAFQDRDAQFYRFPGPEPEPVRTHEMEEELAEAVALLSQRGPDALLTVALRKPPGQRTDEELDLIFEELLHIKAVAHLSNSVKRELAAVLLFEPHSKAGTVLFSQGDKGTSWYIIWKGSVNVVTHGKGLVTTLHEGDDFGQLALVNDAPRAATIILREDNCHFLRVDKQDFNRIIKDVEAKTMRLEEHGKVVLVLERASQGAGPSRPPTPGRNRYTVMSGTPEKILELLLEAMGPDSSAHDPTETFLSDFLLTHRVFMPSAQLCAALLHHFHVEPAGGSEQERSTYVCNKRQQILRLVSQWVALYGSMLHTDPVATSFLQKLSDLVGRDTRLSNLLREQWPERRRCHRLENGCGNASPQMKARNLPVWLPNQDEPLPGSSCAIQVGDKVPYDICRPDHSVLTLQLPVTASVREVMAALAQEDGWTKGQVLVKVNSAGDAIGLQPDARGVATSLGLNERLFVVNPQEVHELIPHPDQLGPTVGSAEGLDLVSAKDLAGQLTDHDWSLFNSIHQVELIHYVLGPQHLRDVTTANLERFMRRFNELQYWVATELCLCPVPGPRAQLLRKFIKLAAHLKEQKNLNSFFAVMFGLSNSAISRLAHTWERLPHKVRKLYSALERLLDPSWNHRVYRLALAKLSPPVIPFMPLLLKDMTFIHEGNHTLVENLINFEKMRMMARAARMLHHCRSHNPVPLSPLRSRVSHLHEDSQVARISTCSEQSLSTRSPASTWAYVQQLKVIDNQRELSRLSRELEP
# Chain of UniProt P08684 (P08684 whole entry, looked up): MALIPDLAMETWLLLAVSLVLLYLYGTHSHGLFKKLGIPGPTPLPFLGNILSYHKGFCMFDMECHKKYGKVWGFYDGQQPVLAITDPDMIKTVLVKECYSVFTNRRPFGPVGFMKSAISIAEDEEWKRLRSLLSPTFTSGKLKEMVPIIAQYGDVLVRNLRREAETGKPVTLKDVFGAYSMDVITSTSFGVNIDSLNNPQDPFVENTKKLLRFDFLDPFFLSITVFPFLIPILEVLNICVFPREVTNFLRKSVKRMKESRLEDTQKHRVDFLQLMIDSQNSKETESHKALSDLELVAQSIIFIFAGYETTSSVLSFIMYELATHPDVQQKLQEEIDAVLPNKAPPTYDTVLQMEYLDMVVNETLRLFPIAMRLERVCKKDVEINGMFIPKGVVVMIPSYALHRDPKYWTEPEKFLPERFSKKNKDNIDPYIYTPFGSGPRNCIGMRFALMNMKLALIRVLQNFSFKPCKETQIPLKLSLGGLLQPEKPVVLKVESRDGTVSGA
# Chain of UniProt P00784 (P00784 whole entry, looked up): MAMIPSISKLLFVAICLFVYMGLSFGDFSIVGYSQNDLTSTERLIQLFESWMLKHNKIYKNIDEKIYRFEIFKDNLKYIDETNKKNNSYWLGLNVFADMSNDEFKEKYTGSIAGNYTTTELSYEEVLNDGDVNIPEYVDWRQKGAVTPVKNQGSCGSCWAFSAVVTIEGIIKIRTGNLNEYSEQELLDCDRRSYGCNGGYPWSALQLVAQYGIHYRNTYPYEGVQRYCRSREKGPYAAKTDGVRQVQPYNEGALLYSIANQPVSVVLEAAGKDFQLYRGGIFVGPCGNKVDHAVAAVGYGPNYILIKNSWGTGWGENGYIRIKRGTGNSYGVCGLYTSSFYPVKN
# Chain of UniProt P11712 (P11712 whole entry, looked up): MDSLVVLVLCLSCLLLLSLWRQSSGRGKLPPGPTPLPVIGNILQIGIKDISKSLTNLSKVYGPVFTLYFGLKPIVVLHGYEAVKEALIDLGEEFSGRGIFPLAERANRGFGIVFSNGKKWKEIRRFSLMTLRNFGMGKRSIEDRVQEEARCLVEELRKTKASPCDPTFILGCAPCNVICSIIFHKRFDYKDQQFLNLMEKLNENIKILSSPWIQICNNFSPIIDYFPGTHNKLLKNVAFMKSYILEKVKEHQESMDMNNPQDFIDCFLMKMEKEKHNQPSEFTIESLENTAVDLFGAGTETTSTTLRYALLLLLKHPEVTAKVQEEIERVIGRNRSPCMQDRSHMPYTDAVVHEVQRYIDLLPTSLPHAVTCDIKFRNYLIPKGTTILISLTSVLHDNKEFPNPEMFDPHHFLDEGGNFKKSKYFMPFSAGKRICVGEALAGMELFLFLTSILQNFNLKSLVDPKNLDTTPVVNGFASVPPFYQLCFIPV
smiles,measurement,setting,value
CCCCCCCCCCCC1=C(O)C(=O)C=C(O)C1=O,Potency,[1],"inconclusive: 7.08 µM [inhibitor, partial curve, poor fit]"
same,Potency,[2],inactive
same,Potency,[3],"inconclusive: 30.1 µM [inhibitor, single point]"
same,Potency,[4],inactive
c1coc(CNc2ncnc3nc[nH]c23)c1,Potency,[1],inactive
same,Potency,[4],inactive
CN(C)c1ccc(C2Nc3ccc4ccccc4c3C3=C2C(=O)CC(C)(C)C3)cc1Br (centres undefined),Potency,[1],inactive
same,Potency,[4],"inconclusive: 23 µM [inhibitor, single point]"
same,Potency,[5],"inconclusive: 20.5 µM [inhibitor, single point]"
COc1cc(Nc2nc3ccccc3nc2NS(=O)(=O)c2ccc(NC(=O)c3ccc(C)c(OC)c3)cc2)cc(OC)c1,Potency,[1],active: 8.41 µM
same,Potency,[4],"inconclusive: 29.1 µM [inhibitor, single point]"
same,Potency,[5],"inconclusive: 29.1 µM [inhibitor, single point]"
CCCC1OC2C[C@@H]3[C@H]4CCC5=CC(=O)C=C[C@]5(C)[C@H]4C(O)C[C@]3(C)[C@]2(C(=O)CO)O1 (some centres undefined),Potency,[1],inactive
same,Potency,[4],"inconclusive: 0.0468 µM [inhibitor, full curve]"
O=C(O)C(O)Cc1ccc(O)c(O)c1 (centres undefined),Potency,[1],"inconclusive: 0.749 µM [inhibitor, full curve, poor fit]"
same,Potency,[4],"inconclusive: 30.3 µM [inhibitor, partial curve]"
same,Potency,[5],"inconclusive: 38.2 µM [inhibitor, partial curve]"
NS(=O)(=O)c1cc2c(cc1Cl)NCNS2(=O)=O,Potency,[1],"inconclusive: 31.6 µM [inhibitor, partial curve, poor fit]"
same,Potency,[4],"inconclusive: 29.9 µM [inhibitor, single point]"
same,Potency,[5],"inconclusive: 26.6 µM [inhibitor, single point]"
CO[C@H]1C=CO[C@@]2(C)Oc3c(C)c(O)c4c(O)c(c5c(c4c3C2=O)NC2(CCN(CC(C)C)CC2)N=5)=NC(=O)C(C)=CC=C[C@H](C)[C@H](O)[C@@H](C)[C@@H](O)[C@@H](C)[C@H](OC(C)=O)[C@H]1C,Potency,[1],"inconclusive: 29.8 µM [inhibitor, partial curve, poor fit]"
same,Potency,[4],"inconclusive: 20.5 µM [inhibitor, single point]"
same,Potency,[5],"inconclusive: 12.9 µM [inhibitor, partial curve]"
Cc1cc(=O)c2c(O)c3c(O)cc(=O)c4c3c3c(cc(O)c1c23)C(C)(C)C=4O,Potency,[2],inactive
CN(C)C(=O)C(CCN1CCC(O)(c2ccc(Cl)cc2)CC1)(c1ccccc1)c1ccccc1,Potency,[6],"inconclusive: 35.5 µM [inhibitor, single point]"
same,Potency,[7],"inconclusive: 10 µM [cytotoxic, partial curve]"
COc1cc2nc(N3CCN(C(=O)c4ccco4)CC3)nc(N)c2cc1OC,Potency,[6],"inconclusive: 7.94 µM [inhibitor, full curve]"
Clc1ccc(C(Cn2ccnc2)OCc2c(Cl)cccc2Cl)c(Cl)c1 (centres undefined),Potency,[8],"inconclusive: 2.91 µM [inhibitor, partial curve] and inconclusive: 23.9 µM [inhibitor, full curve, poor fit]"
same,Potency,[9],"inconclusive: 29.8 µM [inhibitor, single point] and active: 20.5 µM"
same,Potency,[10],"inconclusive: 11.2 µM [activator, partial curve, poor fit]"
CN1CCN(CCCN2c3ccccc3Sc3ccc(Cl)cc32)CC1,Potency,[8],"inconclusive: 44.4 µM [inhibitor, partial curve, poor fit]"
same,Potency,[11],"inconclusive: 28.1 µM [activator, partial curve, poor fit]"
same,Potency,[9],active: 35 µM
CCOc1cc(CC(=O)N[C@@H](CC(C)C)c2ccccc2N2CCCCC2)ccc1C(=O)O,Potency,[10],inactive
